{"source": "the supplement of paper PMC8728848", "test_in_all_cases": "glycan array binding signal (z-score within array); higher = stronger binding", "details_in_all_cases": "glycan notation: IUPAC condensed, linker removed", "key": {"[1]": {"target": "GalNAc(b1-3)Gal(a1-4)Gal(b1-4)GlcNAc(b1-3)Gal(b1-4)Glc", "how_it_was_run": "(§1)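 The binding signal is a Z-score computed within each array and averaged over linkers. Arrays of the same protein sequence at different concentrations or buffers were also averaged together. Data originate from 3228 arrays in the Consortium for Functional Glycomics database, kept only where the protein sequence was available.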"}, "[2]": {"target": "GalNAc(b1-3)Gal(a1-6)Gal(b1-4)Glc", "how_it_was_run": "as §1"}, "GalNAc(b1-3)GalNAc": {"target": "GalNAc(b1-3)GalNAc", "how_it_was_run": "as §1"}, "GalNAc(b1-3)GlcNAc": {"target": "GalNAc(b1-3)GlcNAc", "how_it_was_run": "as §1"}, "GalNAc(b1-4)Gal(b1-4)Glc": {"target": "GalNAc(b1-4)Gal(b1-4)Glc", "how_it_was_run": "as §1"}, "GalNAc(b1-4)GlcNAc": {"target": "GalNAc(b1-4)GlcNAc", "how_it_was_run": "as §1"}, "[3]": {"target": "GalNAc(b1-4)GlcNAc(b1-2)Man", "how_it_was_run": "as §1"}, "[4]": {"target": "GalNAc(b1-4)GlcNAc(b1-2)Man(a1-3)[GalNAc(b1-4)GlcNAc(b1-2)Man(a1-6)]Man(b1-4)GlcNAc(b1-4)GlcNAc", "how_it_was_run": "as §1"}, "[5]": {"target": "GalNAc(b1-4)GlcNAc(b1-3)GalNAc(b1-4)GlcNAc", "how_it_was_run": "as §1"}, "GalNAc(b1-4)GlcNAc6S": {"target": "GalNAc(b1-4)GlcNAc6S", "how_it_was_run": "as §1"}, "GalNAc(b1-6)GalNAc": {"target": "GalNAc(b1-6)GalNAc", "how_it_was_run": "as §1"}, "GalNAc3S(b1-4)GlcNAc": {"target": "GalNAc3S(b1-4)GlcNAc", "how_it_was_run": "as §1"}, "GalNAc3S(b1-4)GlcNAc3S": {"target": "GalNAc3S(b1-4)GlcNAc3S", "how_it_was_run": "as §1"}, "[6]": {"target": "GalNAc3S(b1-4)[Fuc(a1-3)]GlcNAc", "how_it_was_run": "as §1"}, "GalNAc4S6S(b1-4)GlcNAc": {"target": "GalNAc4S6S(b1-4)GlcNAc", "how_it_was_run": "as §1"}, "GalNAc6S(b1-4)GlcNAc": {"target": "GalNAc6S(b1-4)GlcNAc", "how_it_was_run": "as §1"}, "Glc(a1-4)Glc": {"target": "Glc(a1-4)Glc", "how_it_was_run": "as §1"}, "[7]": {"target": "Glc(a1-4)Glc(a1-4)Glc(a1-4)Glc", "how_it_was_run": "as §1"}, "Glc(a1-6)Glc(a1-6)Glc": {"target": "Glc(a1-6)Glc(a1-6)Glc", "how_it_was_run": "as §1"}, "[8]": {"target": "Glc(a1-6)Glc(a1-6)Glc(a1-6)Glc", "how_it_was_run": "as §1"}, "Glc(b1-4)Glc": {"target": "Glc(b1-4)Glc", "how_it_was_run": "as §1"}, "Glc(b1-6)Glc": {"target": "Glc(b1-6)Glc", "how_it_was_run": "as §1"}, "GlcA(b1-3)Gal": {"target": "GlcA(b1-3)Gal", "how_it_was_run": "as §1"}, "GlcA(b1-3)GlcNAc": {"target": "GlcA(b1-3)GlcNAc", "how_it_was_run": "as §1"}, "GlcA(b1-6)Gal": {"target": "GlcA(b1-6)Gal", "how_it_was_run": "as §1"}, "[9]": {"target": "GlcA3S(b1-3)Gal(b1-4)GlcNAc(b1-2)Man", "how_it_was_run": "as §1"}, "[10]": {"target": "GlcA3S(b1-3)Gal(b1-4)GlcNAc(b1-3)Gal(b1-4)Glc", "how_it_was_run": "as §1"}, "[11]": {"target": "GlcNAc(a1-3)Gal(b1-4)GlcNAc", "how_it_was_run": "as §1"}, "[12]": {"target": "GlcNAc(a1-4)Gal(b1-3)GlcNAc", "how_it_was_run": "as §1"}, "[13]": {"target": "GlcNAc(a1-4)Gal(b1-4)GalNAc", "how_it_was_run": "as §1"}, "[14]": {"target": "GlcNAc(a1-4)Gal(b1-4)GlcNAc", "how_it_was_run": "as §1"}, "[15]": {"target": "GlcNAc(a1-4)Gal(b1-4)GlcNAc(b1-3)Gal(b1-4)Glc", "how_it_was_run": "as §1"}, "[16]": {"target": "GlcNAc(a1-4)Gal(b1-4)GlcNAc(b1-3)Gal(b1-4)GlcNAc", "how_it_was_run": "as §1"}, "[17]": {"target": "GlcNAc(a1-4)Gal(b1-4)GlcNAc(b1-3)Gal(b1-4)GlcNAc(b1-3)Gal(b1-4)GlcNAc", "how_it_was_run": "as §1"}, "[18]": {"target": "GlcNAc(a1-4)Gal(b1-4)GlcNAc(b1-3)Gal(b1-4)[Fuc(a1-3)]GlcNAc(b1-3)Gal(b1-4)[Fuc(a1-3)]GlcNAc", "how_it_was_run": "as §1"}, "[19]": {"target": "GlcNAc(a1-6)Gal(b1-4)GlcNAc", "how_it_was_run": "as §1"}, "[20]": {"target": "GlcNAc(b1-2)Gal(b1-3)GalNAc", "how_it_was_run": "as §1"}}, "note": "Some of the results follow."}
{"binder": "LSECtin (Homo sapiens), Q6UXB4 (protein) MDTTRYSKWGGSSEEVPGGPWGRWVHWSRRPLFLALAVLVTTVLWAVILSILLSKASTERAALLDGHDLLRTNASKQTAALGALKEEVGDCHSCCSGTQAQLQTTRAELGEAQAKLMEQESALRELRERVTQGLAEAGRGREDVRTELFRALEAVRLQNNSCEPCPTSWLSFEGSCYFFSVPKTTWAAAQDHCADASAHLVIVGGLDEQGFLTRNTRGRGYWLGLRAVRHLGKVQGYQWVDGVSLSFSHWNQGEPNDAWGRENCVMMLHTGLWNDAPCDSEKDGWICEKRHNC", "values": [{"measurement": "glycan array binding signal (z-score)", "setting": "[1]", "result": -0.138}, {"measurement": "glycan array binding signal (z-score)", "setting": "[2]", "result": -0.134}, {"measurement": "glycan array binding signal (z-score)", "setting": "GalNAc(b1-3)GalNAc", "result": -0.221}, {"measurement": "glycan array binding signal (z-score)", "setting": "GalNAc(b1-3)GlcNAc", "result": -0.127}, {"measurement": "glycan array binding signal (z-score)", "setting": "GalNAc(b1-4)Gal(b1-4)Glc", "result": -0.125}, {"measurement": "glycan array binding signal (z-score)", "setting": "GalNAc(b1-4)GlcNAc", "result": -0.205}, {"measurement": "glycan array binding signal (z-score)", "setting": "[3]", "result": 0.068}, {"measurement": "glycan array binding signal (z-score)", "setting": "[4]", "result": -0.183}, {"measurement": "glycan array binding signal (z-score)", "setting": "[5]", "result": -0.14}, {"measurement": "glycan array binding signal (z-score)", "setting": "GalNAc(b1-4)GlcNAc6S", "result": -0.114}, {"measurement": "glycan array binding signal (z-score)", "setting": "GalNAc(b1-6)GalNAc", "result": -0.128}, {"measurement": "glycan array binding signal (z-score)", "setting": "GalNAc3S(b1-4)GlcNAc", "result": -0.139}, {"measurement": "glycan array binding signal (z-score)", "setting": "GalNAc3S(b1-4)GlcNAc3S", "result": -0.138}, {"measurement": "glycan array binding signal (z-score)", "setting": "[6]", "result": -0.122}, {"measurement": "glycan array binding signal (z-score)", "setting": "GalNAc4S6S(b1-4)GlcNAc", "result": -0.141}, {"measurement": "glycan array binding signal (z-score)", "setting": "GalNAc6S(b1-4)GlcNAc", "result": -0.138}, {"measurement": "glycan array binding signal (z-score)", "setting": "Glc(a1-4)Glc", "result": -0.201}, {"measurement": "glycan array binding signal (z-score)", "setting": "[7]", "result": -0.125}, {"measurement": "glycan array binding signal (z-score)", "setting": "Glc(a1-6)Glc(a1-6)Glc", "result": -0.232}, {"measurement": "glycan array binding signal (z-score)", "setting": "[8]", "result": -0.121}, {"measurement": "glycan array binding signal (z-score)", "setting": "Glc(b1-4)Glc", "result": 0.426}, {"measurement": "glycan array binding signal (z-score)", "setting": "Glc(b1-6)Glc", "result": -0.115}, {"measurement": "glycan array binding signal (z-score)", "setting": "GlcA(b1-3)Gal", "result": -0.223}, {"measurement": "glycan array binding signal (z-score)", "setting": "GlcA(b1-3)GlcNAc", "result": -0.168}, {"measurement": "glycan array binding signal (z-score)", "setting": "GlcA(b1-6)Gal", "result": -0.177}, {"measurement": "glycan array binding signal (z-score)", "setting": "[9]", "result": -0.133}, {"measurement": "glycan array binding signal (z-score)", "setting": "[10]", "result": -0.132}, {"measurement": "glycan array binding signal (z-score)", "setting": "[11]", "result": -0.127}, {"measurement": "glycan array binding signal (z-score)", "setting": "[12]", "result": -0.207}, {"measurement": "glycan array binding signal (z-score)", "setting": "[13]", "result": 3.23}, {"measurement": "glycan array binding signal (z-score)", "setting": "[14]", "result": -0.172}, {"measurement": "glycan array binding signal (z-score)", "setting": "[15]", "result": -0.167}, {"measurement": "glycan array binding signal (z-score)", "setting": "[16]", "result": -0.182}, {"measurement": "glycan array binding signal (z-score)", "setting": "[17]", "result": -0.051}, {"measurement": "glycan array binding signal (z-score)", "setting": "[18]", "result": 0.866}, {"measurement": "glycan array binding signal (z-score)", "setting": "[19]", "result": 0.337}, {"measurement": "glycan array binding signal (z-score)", "setting": "[20]", "result": -0.159}]}
